Our source for the IC50 values is patent publication US11618753B2 (priority 2018, dated 2023).

Usually IC50 stands for the concentration that gives 50% inhibition.

The assay has as its system MLKL phosphorylation, HT29-L23 human colorectal adenocarcinoma cells. Put plainly: cells. The settings on record: read-out: pMLKL HCS Cell Assay (IC50, uM).
For the compound `Nc1ncnn2c(-c3ccc(OCC(F)(F)F)c(C(=O)N[C@@H]4CN(C(=O)C5(F)CC5)C[C@@H]4F)c3)cc(C(F)(F)F)c12` [Example 1074, 5-[4-amino-5-(trifluoromethyl)pyrrolo[2,1-f][1,2,4]triazin-7-yl]-N-[(3R,4S)-4-fluoro-1-(1-fluorocyclopropanecarbonyl)pyrrolidin-3-yl]-2-(2,2,2-trifluoroethoxy)benzamide], the IC50 came to 0.291 µM.
The result for `Cc1c(F)cc(-c2cc(C(F)(F)F)c3c(N)ncnn23)cc1C(=O)N[C@@H]1CN(C(=O)CC(F)(F)F)C[C@@H]1F` [Example 664, 5-[4-amino-5-(trifluoromethyl)pyrrolo[2,1-f][1,2,4]triazin-7-yl]-3-fluoro-N-[(3R,4S)-4-fluoro-1-(3,3,3-trifluoropropanoyl)pyrrolidin-3-yl]-2-methylbenzamide] reads 0.01 µM; that for `Cc1c(F)cc(-c2cc(C(F)(F)F)c3c(N)ncnn23)cc1C(=O)N[C@@H]1CN(C(=O)[C@@H](O)C(F)(F)F)C[C@@H]1F` [Example 672, 5-[4-amino-5-(trifluoromethyl)pyrrolo[2,1-f][1,2,4]triazin-7-yl]-3-fluoro-N-[(3R,4S)-4-fluoro-1-[(2R)-3,3,3-trifluoro-2-hydroxypropanoyl]pyrrolidin-3-yl]-2-methylbenzamide], 0.015 µM.
With `Cc1nc(C)c(-c2cc(C(F)(F)F)c3c(N)ncnn23)cc1C(=O)N[C@@H]1CN(C(=O)CC(O)(C(F)(F)F)C(F)(F)F)C[C@@H]1F` [Example 1201, 5-[4-amino-5-(trifluoromethyl)pyrrolo[2,1-f][1,2,4]triazin-7-yl]-N-[(3R,4S)-4-fluoro-1-[4,4,4-trifluoro-3-hydroxy-3-(trifluoromethyl)butanoyl]pyrrolidin-3-yl]-2,6-dimethylpyridine-3-carboxamide], the IC50 stood at 0.015 µM.
As for `Cc1cc(-c2cc(C(F)(F)F)c3c(N)ncnn23)cc(C(=O)N[C@@H]2CN(C(=O)C3CCC(F)(F)CC3)C[C@@H]2F)c1Cl` [Example 712, 5-[4-amino-5-(trifluoromethyl)pyrrolo[2,1-f][1,2,4]triazin-7-yl]-2-chloro-N-[(3R,4S)-1-(4,4-difluorocyclohexanecarbonyl)-4-fluoropyrrolidin-3-yl]-3-methylbenzamide], the IC50 came out at 0.031 µM.
The result for `Nc1ncnn2c(-c3ccc(OC(F)(F)F)c(C(=O)N[C@@H]4CN(C(=O)C5CC5(F)F)C[C@@H]4F)c3)cc(C(F)(F)F)c12` (stereo partly drawn) [Example 1059, 5-[4-amino-5-(trifluoromethyl)pyrrolo[2,1-f][1,2,4]triazin-7-yl]-N-[(3R,4S)-1-(2,2-difluorocyclopropanecarbonyl)-4-fluoropyrrolidin-3-yl]-2-(trifluoromethoxy)benzamide] reads 0.248 µM.
The result for `COc1ncc(-c2cc(C(F)(F)F)c3c(N)ncnn23)cc1C(=O)NC1CN(C(C)c2ccncn2)C[C@@H]1F` (single isomer, unassigned) [Example 453] reads 0.023 µM; that for `COc1ncc(-c2cc(C(F)(F)F)c3c(N)ncnn23)cc1C(=O)NC1CN(CC2CC(F)(F)C2)CC1F` (racemic) [Example 185], 0.055 µM.
The result for `CCc1ccc(-c2cc(C(F)(F)F)c3c(N)ncnn23)cc1C(=O)N[C@@H]1CN(C(=O)C2CC2(F)F)C[C@@H]1F` (stereo partly drawn) [Example 979, 5-[4-amino-5-(trifluoromethyl)pyrrolo[2,1-f][1,2,4]triazin-7-yl]-N-[(3R,4S)-1-(2,2-difluorocyclopropanecarbonyl)-4-fluoropyrrolidin-3-yl]-2-ethylbenzamide] reads 0.019 µM; that for `Cc1cc(F)c(-c2cc(C(F)(F)F)c3c(N)ncnn23)cc1C(=O)N[C@@H]1CN(C(=O)c2ccccc2F)C[C@@H]1F` [Example 412, 5-[4-amino-5-(trifluoromethyl)pyrrolo[2,1-f][1,2,4]triazin-7-yl]-4-fluoro-N-[(3R,4S)-4-fluoro-1-(2-fluorobenzoyl)pyrrolidin-3-yl]-2-methylbenzamide], 0.0072 µM.
For the compound `COc1ncc(-c2cc(C(F)(F)F)c3c(N)ncnn23)cc1C(=O)N[C@@H]1CN(C2CCCc3c(Br)cccc32)C[C@@H]1F` (mixture of isomers) [Example 1359, 5-[4-amino-5-(trifluoromethyl)-pyrrolo[2,1-f][1,2,4]triazin-7-yl]-N-[(3R,4S)-1-(5-bromo-1,2,3,4-tetrahydronaphthalen-1-yl)-4-fluoropyrrolidin-3-yl]-2-methoxypyridine-3-carboxamide], the IC50 is 0.342 µM.
For the compound `Cc1ncc(-c2cc(C(F)(F)F)c3c(N)ncnn23)cc1C(=O)NCCC(O)(C(F)(F)F)C(F)(F)F` [Example 1783, 5-(4-amino-5-(trifluoromethyl)pyrrolo[2,1-f][1,2,4]triazin-7-yl)-2-methyl-N-(4,4,4-trifluoro-3-hydroxy-3-(trifluoromethyl)butyl)nicotinamide], the IC50 is 0.169 µM.
`[2H]C([2H])([2H])Oc1ncc(-c2cc(CN3CC(F)(F)C3)c3c(N)ncnn23)cc1C(=O)N[C@@H]1CN(C(=O)C(C)(C)C)C[C@@H]1F` [Example 1277, 5-{4-amino-5-[(3,3-difluoroazetidin-1-yl)methyl]pyrrolo[2,1-f][1,2,4]triazin-7-yl}-N-[(3R,4S)-1-(2,2-dimethylpropanoyl)-4-fluoropyrrolidin-3-yl]-2-(methoxy-d3)nicotinamide]: the IC50 amounted to 0.0011 µM.
For `Cc1c(F)cc(-c2cc(C(F)(F)F)c3c(N)ncnn23)cc1C(=O)N[C@@H]1CN(C(=O)C(C)(C)O)C[C@@H]1F` [Example 665, 5-[4-amino-5-(trifluoromethyl)pyrrolo[2,1-f][1,2,4]triazin-7-yl]-3-fluoro-N-[(3R,4S)-4-fluoro-1-(2-hydroxy-2-methylpropanoyl)pyrrolidin-3-yl]-2-methylbenzamide], the IC50 is 0.025 µM.
In the case of `Nc1ncnn2c(-c3ccc(C(F)(F)F)c(C(=O)N[C@@H]4CN(C(=O)C5CCC(F)(F)C5)C[C@@H]4F)c3)cc(C(F)(F)F)c12` (stereo partly drawn) [Example 900, 5-[4-amino-5-(trifluoromethyl)pyrrolo[2,1-f][1,2,4]triazin-7-yl]-N-[(3R,4S)-1-(3,3-difluorocyclopentanecarbonyl)-4-fluoropyrrolidin-3-yl]-2-(trifluoromethyl)benzamide], the IC50 was found to be 0.023 µM.
The value for `CC#CC(=O)N1C[C@H](F)[C@H](NC(=O)c2cc(-c3cc(C(F)(F)F)c4c(N)ncnn34)cnc2OC)C1` [Example 1672, 5-(4-amino-5-(trifluoromethyl)pyrrolo[2,1-f][1,2,4]triazin-7-yl)-N-((3R,4S)-1-(but-2-ynoyl)-4-fluoropyrrolidin-3-yl)-2-methoxynicotinamide] was 0.055 µM; that for `CC(C)CC(=O)N1C[C@H](F)[C@H](NC(=O)c2cc(-c3cc(CN4CCC(C(F)(F)F)CC4)c4c(N)ncnn34)ccc2Cl)C1` [Example 1154, 5-(4-amino-5-{[4-(trifluoromethyl)piperidin-1-yl]methyl}pyrrolo[2,1-f][1,2,4]triazin-7-yl)-2-chloro-N-[(3R,4S)-4-fluoro-1-(3-methylbutanoyl)pyrrolidin-3-yl]benzamide] was 0.001 µM; that for `C[C@@](O)(C(=O)N1C[C@H](F)[C@H](NC(=O)c2cc(F)cc(-c3cc(C(F)(F)F)c4c(N)ncnn34)c2)C1)C(F)(F)F` [Example 1314, 3-[4-amino-5-(trifluoromethyl)pyrrolo-[2,1-f][1,2,4]triazin-7-yl]-5-fluoro-N-[(3R,4S)-4-fluoro-1-[(2R)-3,3,3-trifluoro-2-hydroxy-2-methyl-propanoyl]pyrrolidin-3-yl]benzamide] was 0.011 µM.
The result for `Nc1ncnn2c(-c3cncc(C(=O)N4CCC[C@H](Cc5ccc(F)cc5)C4)c3)cc(C(F)(F)F)c12` [Example 285, 7-{5-[(3R)-3-[(4-fluorophenyl)methyl]piperidine-1-carbonyl]pyridin-3-yl]-5-(trifluoromethyl) pyrrolo[2,1-f][1,2,4]triazin-4-amine] reads 0.022 µM; that for `Cc1cc(-c2cc(C(F)(F)F)c3c(N)ncnn23)cc(C(=O)N[C@@H]2CN(C(=O)C3CC(F)(F)C3)C[C@@H]2F)c1Cl` [Example 706, 5-[4-amino-5-(trifluoromethyl)pyrrolo[2,1-f][1,2,4]triazin-7-yl]-2-chloro-N-[(3R,4S)-1-(3,3-difluorocyclobutanecarbonyl)-4-fluoropyrrolidin-3-yl]-3-methylbenzamide], 0.025 µM; that for `Nc1ncnn2c(-c3cc(C(=O)N[C@@H]4CN(C(=O)C5CC(F)C5)C[C@@H]4F)c(Cl)cc3F)cc(C(F)(F)F)c12` (stereo partly drawn) [Example 409, 5-[4-amino-5-(trifluoromethyl)pyrrolo[2,1-f][1,2,4]triazin-7-yl]-2-chloro-4-fluoro-N-[(3R,4S)-4-fluoro-1-(3-fluorocyclobutane-carbonyl)pyrrolidin-3-yl] benzamide], 0.0092 µM.
The value for `Cc1ccc(-c2cc(C(F)(F)F)c3c(N)ncnn23)cc1C(=O)N[C@@H]1CN(C(=O)c2cn(C3CC3)nn2)C[C@@H]1F` [Example 1030, 5-[4-amino-5-(trifluoromethyl)pyrrolo[2,1-f][1,2,4]triazin-7-yl]-N-[(3R,4S)-1-(1-cyclopropyl-1H-1,2,3-triazole-4-carbonyl)-4-fluoropyrrolidin-3-yl]-2-methylbenzamide] was 0.367 µM; that for `Cc1ncc(-c2cc(C(F)(F)F)c3c(N)ncnn23)cc1C(=O)Nc1cnn(C(c2ccccc2)C(F)(F)F)c1` (centres unmarked) [Example 1814, 5-(4-amino-5-(trifluoromethyl)pyrrolo[2,1-f][1,2,4]triazin-7-yl)-2-methyl-N-(1-(2,2,2-trifluoro-1-phenylethyl)-1H-pyrazol-4-yl)nicotinamide] was 0.0021 µM; that for `Cc1ccc(-c2cc(C(F)(F)F)c3c(N)ncnn23)c(F)c1C(=O)N[C@@H]1CN(C(=O)CC(C)(O)C(F)(F)F)C[C@@H]1F` (stereo partly drawn) [Example 746, 3-[4-amino-5-(trifluoromethyl)pyrrolo[2,1-f][1,2,4]triazin-7-yl]-2-fluoro-N-[(3R,4S)-4-fluoro-1-(4,4,4-trifluoro-3-hydroxy-3-methylbutanoyl)pyrrolidin-3-yl]-6-methylbenzamide] was 0.0081 µM.
With `COc1ncc(-c2cc(C(F)(F)F)c3c(N)ncnn23)cc1C(=O)NC1CN(C(C)c2ccccc2F)C[C@@H]1F` (single isomer, unassigned) [Example 448], the IC50 was 0.0067 µM.
With `CC(C)(F)C(=O)N1C[C@H](F)[C@H](NC(=O)c2cc(-c3cc(C(F)(F)F)c4c(N)ncnn34)ccc2C(F)(F)F)C1` [Example 894], the IC50 was determined as 0.115 µM.
